The text below walks through data of publication PMC4336329 (PLoS ONE, 2015).

Structures are written as SMILES. Hit rate of the full screen: of about 310,000 compounds, about 14,000 (4.5%) showed an effect of 50% or more. The effect is printed as a negative number. The list shows a part of the results.
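Further: peak tail current of the secondary pulse compared with the same well before compound.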

human ether-à-go-go-related gene (hERG) potassium channel, sequence (Q12809 whole entry, looked up): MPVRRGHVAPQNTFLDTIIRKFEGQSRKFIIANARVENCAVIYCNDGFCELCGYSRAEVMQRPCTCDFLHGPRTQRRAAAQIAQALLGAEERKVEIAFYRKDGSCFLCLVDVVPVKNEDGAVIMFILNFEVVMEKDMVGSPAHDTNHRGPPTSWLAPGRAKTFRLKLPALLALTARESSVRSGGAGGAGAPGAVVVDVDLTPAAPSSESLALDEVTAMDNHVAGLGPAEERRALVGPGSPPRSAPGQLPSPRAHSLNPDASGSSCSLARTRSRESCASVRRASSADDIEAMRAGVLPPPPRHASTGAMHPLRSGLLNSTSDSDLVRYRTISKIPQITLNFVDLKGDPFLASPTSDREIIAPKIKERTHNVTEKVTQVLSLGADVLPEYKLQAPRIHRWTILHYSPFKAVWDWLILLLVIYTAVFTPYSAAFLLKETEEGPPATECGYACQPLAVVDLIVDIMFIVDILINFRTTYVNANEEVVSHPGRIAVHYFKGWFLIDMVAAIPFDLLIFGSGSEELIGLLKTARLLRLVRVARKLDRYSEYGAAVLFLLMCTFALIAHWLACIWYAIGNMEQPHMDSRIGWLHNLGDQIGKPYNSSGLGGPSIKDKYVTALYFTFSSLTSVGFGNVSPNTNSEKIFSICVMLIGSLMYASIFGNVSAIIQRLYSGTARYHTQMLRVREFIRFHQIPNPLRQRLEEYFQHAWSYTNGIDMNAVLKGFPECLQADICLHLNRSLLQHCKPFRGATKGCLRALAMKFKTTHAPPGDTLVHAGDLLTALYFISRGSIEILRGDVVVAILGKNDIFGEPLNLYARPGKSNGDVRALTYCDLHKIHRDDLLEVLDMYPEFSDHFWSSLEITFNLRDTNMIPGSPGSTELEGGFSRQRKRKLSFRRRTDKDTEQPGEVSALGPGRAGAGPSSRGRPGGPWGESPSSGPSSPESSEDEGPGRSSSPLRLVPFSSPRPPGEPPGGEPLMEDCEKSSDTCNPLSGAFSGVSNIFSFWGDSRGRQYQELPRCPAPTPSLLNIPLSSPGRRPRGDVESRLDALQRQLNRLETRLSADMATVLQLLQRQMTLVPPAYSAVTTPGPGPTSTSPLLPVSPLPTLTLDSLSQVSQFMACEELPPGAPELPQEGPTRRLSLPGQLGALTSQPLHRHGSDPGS

The test concerns the target human ether-à-go-go-related gene (hERG) potassium channel (human, UniProt Q12809). Briefly: primary screen, population patch clamp on CHO cells stably expressing hERG.
Take `CC(=O)c1cnc2cc(-c3ccccc3)nn2c1C`: the “hERG current change (%, negative = inhibition) at 10uM” value is -5.79%. For the compound `O=[N+]([O-])c1ccc(-c2nc(=S)c3c(o2)CCCC3)cc1`, the “hERG current change (%, negative = inhibition) at 10uM” value is -6.53%. Take `N#Cc1nc(-c2ccc(Cl)cc2)oc1NCc1ccco1`: the “hERG current change (%, negative = inhibition) at 10uM” value came to 16.7%. `O=C1NC(=O)N(c2ccccc2F)C(=O)/C1=C/c1ccc(Sc2nc3ccccc3[nH]2)o1`: the “hERG current change (%, negative = inhibition) at 10uM” value is on record as -4.03%. With `C#CCOCCOCCOCCNc1nc(N2CCN(C(=O)Cn3cc(CC(C)O)nn3)CC2)nc(N2CCN(C(=O)[C@H]([C@@H](C)CC)n3cc(CCC[NH+]=C(N)N)nn3)CC2)n1.[Cl-]` (stereo partly drawn), the “hERG current change (%, negative = inhibition) at 10uM” value is on record as -0.406%. As for `CC(C)(C)c1ccc(-c2noc(CCC(=O)NCc3ccco3)n2)cc1`, the “hERG current change (%, negative = inhibition) at 10uM” value is on record as -0.0396%. On to `CN(CC1CCCO1)S(=O)(=O)c1ccc(C(=O)Nc2nccs2)cc1` (stereo not drawn), for which the “hERG current change (%, negative = inhibition) at 10uM” value is -0.406%. With `CC(NC(=O)C1CC1)C(c1cccs1)N1CCN(c2ccccc2)CC1` (stereo not drawn), the “hERG current change (%, negative = inhibition) at 10uM” value is recorded as -0.284%. For the compound `C=CCN(CC=C)C(=S)NC(=O)Cc1cccc2ccccc12`, the “hERG current change (%, negative = inhibition) at 10uM” value is -9.26%. In the case of `COC(=O)COc1ccc2c(=O)c(Oc3ccccc3Br)coc2c1`, the “hERG current change (%, negative = inhibition) at 10uM” value turned out to be 14%.

With `Cc1c(NS(=O)(=O)c2cccc(C(=O)OCC(=O)N(C)C3CCCCC3)c2)c(=O)n(-c2ccccc2)n1C`, the “hERG current change (%, negative = inhibition) at 10uM” value is listed as 4%. Turning to `Cl.O=C(NCCN1CCOCC1)c1ccc(Cl)c(S(=O)(=O)N2CCCCCC2)c1`, the “hERG current change (%, negative = inhibition) at 10uM” value is recorded as -40.1%.

Regarding `O=C(CSc1ccc2c(c1)OCCO2)Nc1ccc(N2CCOCC2)cc1`, the “hERG current change (%, negative = inhibition) at 10uM” value came out at 15.1%. As to `CC(=O)NCCc1nc2cc(NC(=O)c3cccs3)ccc2n1C`, the “hERG current change (%, negative = inhibition) at 10uM” value stood at 12%.

Turning to `CC(C)=C1C2CCC1C1C(=O)N(c3nc(-c4ccc(C(C)C)cc4)c(C)s3)C(=O)C21` (stereo not drawn), the “hERG current change (%, negative = inhibition) at 10uM” value is listed as -0.211%.

As to `COC(=O)[C@H](Cc1c[nH]c2ccccc12)NC(=O)NCc1ccccc1`, the “hERG current change (%, negative = inhibition) at 10uM” value came out at 11.1%. For the compound `CCOc1ccc(N(CC(=O)Nc2ccc3c(c2)OCCO3)S(=O)(=O)c2c(C)noc2C)cc1`, the “hERG current change (%, negative = inhibition) at 10uM” value turned out to be 17.6%. `CCC1=C(C)C(N2CCOCC2)=NP(N2CCOCC2)(N2CCOCC2)=N1`: the “hERG current change (%, negative = inhibition) at 10uM” value worked out at 8.02%. In the case of `CCn1nc(C(=O)Nc2nc3ccc(C)cc3s2)c2ccccc2c1=O`, the “hERG current change (%, negative = inhibition) at 10uM” value came out at 8.07%.

For `COc1ccc(-c2noc(N3CCC(C(=O)Nc4ccc(OC)cc4OC)CC3)n2)cc1`, the “hERG current change (%, negative = inhibition) at 10uM” value was -9.62%.

Consider `Cc1ccccc1NC(=O)Cc1nc(COC(=O)c2ccc(S(C)(=O)=O)c([N+](=O)[O-])c2)cs1`, for which the “hERG current change (%, negative = inhibition) at 10uM” value was -1.06%. Take `Nc1nccnc1C(=O)OCC(=O)C12CC3CC(CC(C3)C1)C2`: the “hERG current change (%, negative = inhibition) at 10uM” value was -5.19%. In the case of `Cc1cc(C)c(S(=O)(=O)NCc2ccncc2)c(C)c1`, the “hERG current change (%, negative = inhibition) at 10uM” value was 5.13%. In the case of `N#Cc1ccc(S(=O)(=O)NC2CCN(Cc3ccccc3)CC2)cc1`, the “hERG current change (%, negative = inhibition) at 10uM” value is -31.8%. In the case of `COc1ccccc1Oc1coc2c(CN3CCOCC3)c(O)ccc2c1=O`, the “hERG current change (%, negative = inhibition) at 10uM” value is -1.63%. For `O=C(c1ccc2c(=O)n(CC3CCCO3)c(=S)[nH]c2c1)N1CCN(c2ccccc2)CC1` (stereo not drawn), the “hERG current change (%, negative = inhibition) at 10uM” value is -1.95%. In the case of `O=C(Nc1ccc(N2CCOCC2)cc1)C1CCCCC1`, the “hERG current change (%, negative = inhibition) at 10uM” value is listed as 4.44%. The same measure for `CCN1CCN(C(=O)C2CCCN(S(=O)(=O)c3cc(Cl)ccc3Cl)C2)CC1` (stereo not drawn): -41%. For the compound `CC1(C(=O)O)CCC(C(=O)Nc2cccc(F)c2)C1(C)C` (stereo not drawn), the “hERG current change (%, negative = inhibition) at 10uM” value was 4.5%. `O=C(O)c1ccc(Cl)cc1Nc1nc2cc(Cl)ccc2o1`: the “hERG current change (%, negative = inhibition) at 10uM” value worked out at 22.5%. The same measure for `Cc1ncc([N+](=O)[O-])n1CCOC(=O)c1ccc(Cl)cc1Cl`: -20.2%. Regarding `CC1(C)Cc2c(c(N3CCCC3)nc3sc4c(N5CCNCC5)ncnc4c23)CO1`, the “hERG current change (%, negative = inhibition) at 10uM” value is given as -35.2%. On to `NC(=O)C1CCCN(Cc2ccc(Cl)cc2)C1` (stereo not drawn), for which the “hERG current change (%, negative = inhibition) at 10uM” value is reported as 0.421%. For `COc1ccc(NC(=O)c2noc(C(C)C)c2[N+](=O)[O-])cc1` the value was 6.44%; for `COc1ccc(Cn2c(N)c(C(=O)NCc3ccco3)c3nc4ccccc4nc32)cc1OC`, 7.14%. For `COc1ccc(OC)c(CN2CCN(S(=O)(=O)c3ccccc3)CC2)c1` the value was -79.2%; for `O=C(COC(=O)CCC(=O)c1cccs1)NCc1ccc(Cl)cc1`, 0.0834%; for `O=C(CSc1nccn1Cc1ccc(F)cc1)NC1CCCC1`, -0.2%.

As to `COCCNC(=O)C(c1ccc(O)cc1)N(Cc1ccco1)C(=O)CCC(=O)Nc1ccccn1` (stereo not drawn), the “hERG current change (%, negative = inhibition) at 10uM” value stood at 23.8%. `COc1ccc(-n2nc(C(=O)N3CCC(N4CCCCC4)CC3)c3c4ccccc4n(C)c3c2=O)cc1`: the “hERG current change (%, negative = inhibition) at 10uM” value is reported as 7.1%. For the compound `Cc1ccc(NC(=O)CSc2nnnn2C)cc1S(=O)(=O)N(C)C`, the “hERG current change (%, negative = inhibition) at 10uM” value is on record as 5.34%. For `CC(C)(C)CC(=O)Nc1nnc(SCC(=O)N2CCCCC2)s1` the value was 1.31%; for `CCC(C)(C)C1CCC(NC(=O)c2ccc(S(=O)(=O)N3CCOCC3)cc2)CC1` (stereo not drawn), -12.1%; for `Cc1ccc(C2=NS(=O)(=O)N(C)C(C(=O)NC3CCCC3)=C2)cc1`, -3.36%. In the case of `COc1cc(/C=N/NC(=O)CC(=O)NC2CCCCC2)ccc1O`, the “hERG current change (%, negative = inhibition) at 10uM” value is given as 17.2%. `CC(C)n1nnnc1SCC(=O)N1CCN(C(=O)c2ccco2)CC1`: the “hERG current change (%, negative = inhibition) at 10uM” value amounted to 4.86%. Take `Cc1ccc(-c2[nH]c3cc(C(=O)NCCCn4ccnc4)ccc3c(=O)c2O)cc1`: the “hERG current change (%, negative = inhibition) at 10uM” value is 4.14%. Take `O=C(NC(=S)N1CCN(CCO)CC1)C12CC3CC(CC(C3)C1)C2`: the “hERG current change (%, negative = inhibition) at 10uM” value came out at 1.36%. For `CCOC(=O)C(NCc1ccc2c(c1)OCO2)(NC(=O)CC)C(F)(F)F` (stereo not drawn), the “hERG current change (%, negative = inhibition) at 10uM” value turned out to be 14.3%. Regarding `CCCCc1nc2cc(C(=O)N3CCC(OCCOC)CC3)ccc2o1`, the “hERG current change (%, negative = inhibition) at 10uM” value came out at 8.07%. For `CN1CCN(C(=O)/C=C\C(=O)O)CC1` the value was 0.151%. For the compound `C=CCSc1nc(Cc2ccc(Cl)cc2)nc2ccccc12`, the “hERG current change (%, negative = inhibition) at 10uM” value came to 2.63%. With `COc1ccc(OC)c(NC(=O)CSc2nccn2Cc2ccco2)c1`, the “hERG current change (%, negative = inhibition) at 10uM” value was determined as 7.18%.

With `Cc1ccc([N+](=O)[O-])cc1NC(=O)CSc1nncc2ccccc12`, the “hERG current change (%, negative = inhibition) at 10uM” value is reported as -9.86%.
